From patent US20260374838 (published 2026) come the findings set out here.

The target of this experiment is T1, human CD200R (human, UniProt Q8TD46).
T1 chain: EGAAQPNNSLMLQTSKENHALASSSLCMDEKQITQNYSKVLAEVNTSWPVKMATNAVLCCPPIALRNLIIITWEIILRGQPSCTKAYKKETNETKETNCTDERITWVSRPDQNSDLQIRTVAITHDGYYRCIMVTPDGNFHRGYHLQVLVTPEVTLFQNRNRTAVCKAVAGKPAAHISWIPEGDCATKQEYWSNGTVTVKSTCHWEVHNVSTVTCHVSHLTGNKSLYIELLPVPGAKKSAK
The experiment in a line: SPR, 25C. In general terms: Surface plasmon resonance follows binding to a sensor surface in real time, without labels.

B1: ARQ-234 (antibody)
chain: QVQVVTQDEREQLYTPASLKCSLQNAQEALIVTWQKKKAVSPENMVTFSENHGVVIQPAYKDKINITQLGLQNSTITFWNITLEDEGCYMCLFNTFGFGYYSGTACLTVYVQPIVSLHYKFSEDHLNITCSATARPAPMVFWKVPRSGIENSTVTLSHPNGTTSVTSILHIKDPKNQVGKEVICQVLHLGTVTDFKQTVNKGPP[human IgG4 Fc with changes not printed]
B1: the affinity, expressed as Kd, was 2.11 nM.
